Measurements: publication PMC6919601, “Identification of Plasmodium dipeptidyl aminopeptidase allosteric inhibitors by high throughput screening” (PLoS ONE, 2019)
Among all 110,000 compounds or so, about 230 (0.21%) showed an effect of 50% or more. The list shows a part of the results.

Molecular target: DPAP1 (Plasmodium falciparum, UniProt Q8IIJ9)
Experiment: primary screen, percent inhibition; read by cleavage of a fluorogenic dipeptide substrate; higher = more effect of the substance
Parameters: species or system P. falciparum D10 trophozoite lysates; single well
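Note: 30 min substrate incubation versus DMSO and 10 µM JCP410 controls.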

Chain of DPAP1 (Q8IIJ9 whole entry, looked up): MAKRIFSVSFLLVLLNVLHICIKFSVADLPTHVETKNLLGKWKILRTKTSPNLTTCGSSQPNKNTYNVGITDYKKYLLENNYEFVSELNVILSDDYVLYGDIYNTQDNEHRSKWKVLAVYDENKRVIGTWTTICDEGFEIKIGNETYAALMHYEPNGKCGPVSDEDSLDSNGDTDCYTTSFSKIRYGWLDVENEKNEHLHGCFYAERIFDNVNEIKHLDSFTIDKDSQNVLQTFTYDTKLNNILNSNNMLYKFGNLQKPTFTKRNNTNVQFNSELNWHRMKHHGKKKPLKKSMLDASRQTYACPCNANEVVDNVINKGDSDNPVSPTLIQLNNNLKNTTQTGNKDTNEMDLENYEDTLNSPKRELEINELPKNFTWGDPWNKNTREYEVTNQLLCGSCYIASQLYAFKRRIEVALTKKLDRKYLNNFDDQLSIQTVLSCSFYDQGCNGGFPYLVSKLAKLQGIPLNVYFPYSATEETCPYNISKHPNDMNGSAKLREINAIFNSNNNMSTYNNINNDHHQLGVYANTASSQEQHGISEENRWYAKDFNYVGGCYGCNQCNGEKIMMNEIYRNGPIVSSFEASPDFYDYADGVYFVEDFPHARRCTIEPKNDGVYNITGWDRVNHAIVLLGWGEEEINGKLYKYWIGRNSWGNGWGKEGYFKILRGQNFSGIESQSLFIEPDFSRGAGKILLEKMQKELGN

Compound | % Inhibition @ 10 uM
CC1=C(C(=O)Nc2ccccc2)C(c2ccco2)C(C#N)=C(SCc2ccc(Cl)cc2)N1 (stereo not shown) | 3.01%
FC(F)(F)c1ccccc1CN1CCN(c2ncccn2)CC1 | -4.61%
C#CCN1C(=O)C(O)(CC(=O)c2ccc(C)cc2C)c2ccccc21 (stereo not shown) | 3.74%
COc1ccc(C(=O)NCC(=O)NC2=NCCS2)cc1 | 0.487%
CCc1nn(CC(=O)N2CCCC2)c(=O)c2cccn12 | -2.78%
COc1ccc(/C=C(/NC(=O)c2ccccc2Br)C(=O)NCC(=O)O)c(OC)c1 | 22.9%
CCN1CCc2nc3sc4c(=O)[nH]c(=O)[nH]c4c3cc2C1 | -4.14%
COc1ccc(-c2noc(CC(=O)Nc3cc(C)on3)n2)cc1 | 3.28%
Cc1ccc(C(=O)Nc2sc3c(c2C#N)CCCC3)cc1 | -1.64%
COc1ccc(C(=O)Nc2cccc(Br)c2)cc1 | -1.56%
CCn1c2ccccc2c2cc(C3C(C#N)=C(N)OC4=C3C(=O)CCC4)ccc21 (stereo not shown) | 15.8%
CCc1nc2nc(C)cc(NCc3ccc(F)cc3)n2n1 | 0.974%
Cc1ccc(NC(=O)c2ccccc2C(=O)O)cc1Br | 2.86%
COC(=O)c1ccc2nc(Nc3nc4ccc(OC)cc4s3)sc2c1 | 8.34%
O=C(NC1CCCCC1)N1CCN(c2ccccc2F)CC1 | -5.49%
CC1(C)CC(=O)C2=C(C1)OC(N)=C(C#N)C2c1ccc(-c2ccccc2)o1 (stereo not shown) | -0.969%
CC1(C)CC(=O)c2cnc(NC(=O)C3CCCCC3)nc2C1 | -1.05%
OCCNCc1cccc(OCc2ccc(F)cc2)c1 | 0.315%
COc1cccc(-c2nc(-c3ccc(Cl)cc3)no2)c1 | -4%
COc1cc(C)c(CN2CCN(c3ccccc3F)CC2)cc1C | -5.81%
CC(C)C[C@H](NC(=O)c1cc2c(-c3ccccc3)nn(C)c2s1)C(=O)NCC#N | 2.87%
CCOc1ccc(NC2=NC(=O)CC(C(=O)Nc3ccc(F)cc3)N2)cc1 (stereo not shown) | -1.55%
COc1ccc(-c2cc(C(=O)N3CCOCC3)c3ccccc3n2)cc1 | 0.245%
Oc1ccccc1-c1nc(/C=C/c2ccc(Cl)cc2)no1 | 1.72%
O=C(O)c1ccc(NC(=O)c2ccc(N3C(=O)c4ccccc4C3=O)cc2)cc1 | 0.317%
CCOCCCNC(=O)CNC(=S)N(Cc1ccccc1F)C1CCCCC1 | 2.9%
COc1ccc(CO/C(O)=C2\C(C)=NC3=C(C(=O)CCC3)C2c2cccc(OC)c2OC)cc1 (stereo not shown) | -3.69%
CCOc1ccccc1N1CCN(Cc2ccc(Cl)cc2Cl)CC1 | -2.08%
